# Test results published in the supplement of paper PMC10338343.
# ± gives the standard deviation. The entries are a selection whose mix differs from that of the whole data set.
# Test system: MIWI (PIWIL1) piRISC loaded with L1MC piRNA (30 nt)
# Experiment: pre-steady-state target cleavage rate (min^-1); MIWI and MILI are mouse PIWI proteins and EfPiwi is from a freshwater sponge; tags in brackets are library labels; higher = faster piRNA-guided slicing of the target
# Conditions: guide: L1MC piRNA 5'p-UAACUAAAUACUAUGCAAGCUGUAGGUCCU
# Procedure, shortened: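 A burst-and-steady-state fit was used to obtain the pre-steady-state cleavage rate. The input data were sequencing reads of uncleaved targets, normalised to depth and to weakly complementary targets, from a […] transcribed, DNA-blocked target RNA library mixed with 1 nM active affinity-purified piRISC holding one synthetic guide, with or without 500 nM GTSF1 partner protein, in HEPES–potassium acetate buffer at 33 °C for 0–8 or 0–960 min. Three trials were pooled and k3 was capped at 0.0001 min^-1.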
# [1] = auxiliary factor: 500 nM mouse GTSF1
# [2] = auxiliary factor: none (no GTSF1)
# 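Also: 1 nM active piRISC with 0.1 nM target library at 33 °C single turnover.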
Sequence,pre-steady-state target cleavage rate [1],pre-steady-state target cleavage rate [2]
AGGACCUACAGCUUGCAUAGUAUUUAUGUUA,0.662 ± 0.057,0.0656 ± 0.013
UCCUGGAUCUCGUUGCAUAGUAUUUAGUUA,0.156 ± 0.016,0.00559 ± 0.0022
AGGACCUACAGCGUUGCAUAGUAUUUAGUUA,1.21 ± 0.086,0.0748 ± 0.015
UCCUCCUACACGAUGCAUAGUAUUUAGUUA,0.964 ± 0.036,0.00382 ± 0.0015
UCCAGCUACAGCUUGCAUAGUAUAUAGUUA,0.319 ± 0.039,0.0155 ± 0.0019
UCCACCUACAGCUUGCAUAGUAAUUAGUAA,0.341 ± 0.044,0.009 ± 0.003
UGGACCUACAGCUUGCAUAUAUUUAGUUA,0.429 ± 0.067,0.00298 ± 0.0022
UCCUGGUACAGCUUGGAUAGUAUUUAGUUA,0.485 ± 0.062,0.0337 ± 0.0046
UCCACCUACAGGAAGCAUAGUAUUUAGUUA,0.767 ± 0.07,0.00581 ± 0.0017
UCCUGGAACAGGUUGCAUAGUAUUUUGUUA,0.538 ± 0.048,0.012 ± 0.0027
UCCUGGAUGAGCUUGCUUAGUUUUUAGUUA,0.0242 ± 0.0064,0.00971 ± 0.0022
UCCACCUACAGCAUGCAUAGUAUUUUGUUA,0.562 ± 0.056,0.0113 ± 0.0018
UCGACGUACAGCAUGCAUAGUAUUUAGUUA,1.29 ± 0.044,0.0368 ± 0.0078
UCCUGGAACAGCUUGCAUAGUAUUAAGAAA,0.376 ± 0.066,0.00299 ± 0.0026
UCCUGCUACAGCUAGCAUAGAAUUUAGUUA,0.528 ± 0.048,0.0108 ± 0.0032
UCCACCGACAGCUUGCAUAGUAUUUAGUUA,1.04 ± 0.043,0.0616 ± 0.011
UCCUGGAAGCAGCUUGCAUAGUAUUUAGUUA,1.15 ± 0.052,0.0705 ± 0.014
UCCACCUACAGCUUGCUUAGUUUUUAGUUA,0.175 ± 0.017,0.0103 ± 0.002
UCCUGGGACAGCUUGCAUAGUAUUUAGUUA,0.875 ± 0.066,0.0815 ± 0.017
AGGACCUACAGCUUGGUUAGUAUUUAGUAA,0.559 ± 0.057,0.00682 ± 0.0022
AGGACGUACUGCUUGCAUAGUAUUUAGUUA,0.965 ± 0.062,0.0573 ± 0.0079
UCCACCUACAGCUUGCAUAGUUUAUAGUUA,0.145 ± 0.024,0.00715 ± 0.0029
UCCUGGAUGUGCUUGCAAAGUAUUAAGUUA,0.0289 ± 0.0064,0.0112 ± 0.0033
UCCUCCUACAGCUUGCAAAGUAUUUAGUAA,0.545 ± 0.039,0.0171 ± 0.0037
AGGACCUACAGCGUGCAUAGUAUUUAGUUA,1.34 ± 0.054,0.0658 ± 0.011

Sequence,pre-steady-state target cleavage rate [1],pre-steady-state target cleavage rate [2]
UCGAGCUACAGCUUGCAUAGUAAUUAGUUA,0.979 ± 0.058,0.0253 ± 0.0057
UCCUGCUACAGCUAGCAUAGUAUAUAGUUA,0.535 ± 0.053,0.0057 ± 0.0026
ACGACCUACAGCUUGCUUAGUAUUUAGUUA,1.57 ± 0.074,0.0527 ± 0.013
UCGACCAACAGCUUGCAUAGUAUUUACUUA,0.335 ± 0.024,0.0337 ± 0.0049
UCCUGCUACAGCUUGCAUAGUAUUUAGUUC [g2:g25:cont:t1C],0.861 ± 0.048,0.0453 ± 0.0097
UCCUCCUACAGCUUGCAUAGUAUAUUGUUA,0.368 ± 0.033,0.0145 ± 0.0039
UCGAGCUACAGCAUGCAUAGUAUUUAGUUA,1.19 ± 0.054,0.0332 ± 0.0062
UCCUCCAUGAGCUUGCAUAGUAUUUAGUUA,0.844 ± 0.03,0.0503 ± 0.0084
UCCUGGAUGAGCUUGCAUAGUUUUUAGAUA,0.0373 ± 0.011,0.00756 ± 0.0031
UCGACGUACAGCUUCCAUAGUAUUUAGUUA,0.0527 ± 0.011,0.00418 ± 0.0013
UCCUGGAUCACGUUGCAUAGUAUUUAGUUA,0.143 ± 0.02,0.00548 ± 0.0023
UCGACGAACAGCUUGCAUAGUAUUUACAAA,0.4 ± 0.048,0.00547 ± 0.0022
AGGACCUAGUCCUUGCAUAGUAUUUAGUAA,0.568 ± 0.069,0.0257 ± 0.0058
UCCUCCUACUGCUAGCAUAGUAUUUAGUUA,0.871 ± 0.033,0.0164 ± 0.0031
UCCUGGUACAGCUUGCAAAGUUUUUAGUUA,0.284 ± 0.029,0.0265 ± 0.0081
UCCUGCUACAGCUUGCAUAGUAUUUAGUUA [g2:g25:cont:t1A],0.864 ± 0.042,0.0585 ± 0.01
UCCUGGUAGAGCUUGCAUAGUAUUUUGUUA,0.462 ± 0.05,0.015 ± 0.005
UCCUCCUACAGCUUGCAUAGUAUUUAGUGA,0.374 ± 0.053,0.0212 ± 0.0042
UCCUGGAACAGCUUUGCAUAGUAUUUAGUUA,1.04 ± 0.051,0.0221 ± 0.0054
UCGACGAACAGCUUGCAUAGUAUUUAGUAA,0.962 ± 0.062,0.0577 ± 0.013
UCGACCUACAGCUAGGAUAGUAUUUAGUUA,1.29 ± 0.064,0.00874 ± 0.0021
UCCUCCUAGAGCUUGCAUAGAAUUUAGUUA,0.291 ± 0.038,0.0124 ± 0.0036
UCCUCCUACAGCUUGCAUAGUAUUUUGUAA,0.214 ± 0.034,0.00779 ± 0.0029
UGGACCUAACAGCUUGCAUAGUAUUUAGUUA,1.33 ± 0.061,0.0609 ± 0.01
UCGACCUACAGCUUGGUUAGUAUUUAGUAA,0.72 ± 0.061,0.00525 ± 0.002
